According to the supplement of paper PMC12217912:
This is one part of the list. Sequences were assembled here from the parent chain. Values near 0.05 are background.

B1: TEV protease; numbered along this chain (parent)
chain: MGESLFKGPRDYNPISSSICHLTNESDGHTTSLYGIGFGPFIITNKHLFRRNNGTLVVQSLHGVFKVKDTTTLQQHLVDGRDMIIIRMPKDFPPFPQKLKFREPQREERICLVTTNFQTKSMSSMVSDTSCTFPSGDGIFWKHWIQTKDGQCGSPLVSTRDGFIVGIHSASNFTNTNNYFTSVPKNFMELLTNQEAQQWVSGWRLNADSVLWGGHKVFMVKPEEPFQPVKEATQL

Variants of: B1
Assay: raw area under fraction-flipped curve 0-4 h after induction (AUC4h, not background-subtracted), DNA-recorder readout of cleavage of the substrate (dimensionless); higher = more cleavage of the substrate by the protease variant
Details: temperature: 34 °C; time window: 0-4 h after rhamnose induction
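Also: Bxb1 expression induced with 0.2% (w/v) L-rhamnose at OD600 near 0.5, cultures sampled hourly, flipped fraction per protease–substrate barcode pair counted by paired-end Illumina sequencing.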

Row | Variant | area with substrate EFLYFQS | area with substrate EMLYFQS | area with substrate ESLYFQS | area with substrate EKLYFQS | area with substrate EQLYFQS | area with substrate ERLYFQS | area with substrate ETLYFQS | area with substrate EVLYFQS | area with substrate EILYFQS | area with substrate ELLYFQS
1 | T132K | 0.071 | 0.0602 | 0.0609 | – | – | – | – | – | – | –
2 | F140S | 0.0602 | – | – | 0.0799 | 0.0794 | 0.0605 | 0.0621 | 0.0245 | – | –
3 | G166E | 0.0538 | – | 0.0704 | – | 0.04 | – | – | 0.0427 | 0.0449 | 0.0614
4 | N172R | 0.0593 | 0.0471 | 0.0581 | – | 0.0569 | 0.0568 | 0.077 | 0.0612 | 0.068 | –
5 | N175S | 0.0865 | – | 0.0923 | – | – | 0.0708 | – | – | 0.0805 | –
6 | N178Q | 0.153 | – | – | – | – | 0.131 | – | – | 0.126 | 0.137
7 | S182M | 0.0823 | – | – | – | – | – | – | – | – | –
8 | E195L | 0.0907 | 0.0951 | – | 0.177 | 0.101 | – | – | 0.116 | – | 0.0598
9 | G202I | 0.0642 | – | 0.0594 | – | 0.0139 | 0.0568 | 0.052 | 0.0599 | 0.0728 | –
10 | A207R | 0.0817 | – | 0.114 | 0.116 | – | 0.106 | 0.117 | 0.0943 | 0.0913 | –
11 | L211T | 0.112 | – | – | – | – | – | – | – | – | –
12 | V229R | 0.0847 | 0.0805 | 0.116 | – | 0.151 | 0.103 | – | – | – | –
13 | L5H | – | – | 0.117 | – | – | 0.102 | – | 0.11 | 0.109 | –
14 | V58L | – | – | 0.101 | – | 0.108 | – | – | 0.0931 | – | –
15 | D69F | – | 0.0765 | – | – | 0.0951 | – | – | 0.0725 | 0.107 | –
16 | M83L | – | – | 0.0918 | – | 0.122 | 0.0877 | – | 0.0882 | – | 0.0988
17 | P93W | – | 0.104 | – | – | – | – | – | – | – | –
18 | N116V | – | – | 0.104 | 0.0964 | 0.0946 | 0.0958 | – | – | 0.0904 | –
19 | N116W | – | 0.0903 | 0.0971 | 0.108 | – | 0.0656 | 0.11 | 0.0754 | – | –
20 | D137H | – | – | 0.0979 | 0.123 | 0.103 | – | – | 0.0716 | – | 0.0867
21 | G162N | – | – | – | – | – | – | – | – | 0.0498 | –
22 | A170E | – | – | 0.0625 | – | – | – | 0.0649 | – | 0.0556 | –
23 | A196V | – | – | 0.0927 | 0.105 | – | – | – | – | 0.112 | –
24 | Q198P | – | 0.0686 | – | – | – | – | 0.107 | 0.0756 | 0.0705 | 0.0776
25 | W199Q | – | – | – | – | – | – | – | 0.0648 | – | –
26 | G213H | – | 0.0809 | 0.0565 | 0.0731 | – | – | – | – | 0.0412 | –

Same assay, conditions: temperature: 34 °C; time window: 0-4 h after rhamnose induction

Row | Variant | area with substrate EPLYFQS | area with substrate EWLYFQS | area with substrate EGLYFQS | area with substrate EYLYFQS | area with substrate EHLYFQS
27 | N172R | 0.0516 | – | – | – | –
28 | N175S | 0.0922 | 0.0681 | – | – | –
29 | N178Q | 0.168 | 0.117 | – | – | –
30 | G202I | – | 0.0614 | 0.0518 | – | –
31 | A207R | – | – | – | 0.0812 | –
32 | V229R | – | 0.0998 | – | 0.105 | 0.0978
33 | L5H | – | 0.0757 | 0.146 | – | –
34 | V58L | – | – | 0.0833 | 0.109 | 0.112
35 | D69F | 0.0888 | – | 0.0548 | – | –
36 | M83L | – | 0.0806 | 0.0895 | – | –
37 | P93W | – | – | 0.0774 | – | –
38 | N116V | 0.101 | – | 0.0702 | 0.094 | –
39 | N116W | 0.13 | 0.0805 | 0.0805 | 0.105 | 0.0981
40 | D137H | 0.124 | – | 0.0999 | – | 0.0995
41 | G162N | – | 0.084 | 0.0679 | – | –
42 | A170E | – | – | 0.0512 | 0.0602 | –
43 | A196V | 0.169 | 0.0747 | 0.0746 | 0.124 | 0.0958
44 | Q198P | 0.0962 | – | 0.0736 | 0.0863 | –
45 | W199Q | – | 0.0683 | 0.0821 | – | –
46 | G213H | – | – | 0.0696 | – | –
